Reference: the supplement of paper PMC12217912
The other results are listed elsewhere or left out. Sequences were assembled here from the parent chain. Inactive controls read about 0.05.

B1: TEV protease; numbered along this chain (parent)
chain: MGESLFKGPRDYNPISSSICHLTNESDGHTTSLYGIGFGPFIITNKHLFRRNNGTLVVQSLHGVFKVKDTTTLQQHLVDGRDMIIIRMPKDFPPFPQKLKFREPQREERICLVTTNFQTKSMSSMVSDTSCTFPSGDGIFWKHWIQTKDGQCGSPLVSTRDGFIVGIHSASNFTNTNNYFTSVPKNFMELLTNQEAQQWVSGWRLNADSVLWGGHKVFMVKPEEPFQPVKEATQL

Variants of: B1
Assay: raw area under fraction-flipped curve 0-4 h after induction (AUC4h, not background-subtracted), DNA-recorder readout of cleavage of the substrate (dimensionless); higher = more cleavage of the substrate by the protease variant
Details: temperature: 34 °C; time window: 0-4 h after rhamnose induction
Procedure: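 In vivo DNA recorder in E. coli TOP10(DE3) ΔrhaA at 34 °C. Each TEVp single-site mutant (parent TEVp 0) is paired with a single-site variant of the 7-mer TEVs (canonical ENLYFQ|S). The substrate sits between flexible linkers in a Bxb1-sfGFP-TEVs-SsrA fusion, so cleavage stabilises Bxb1 and speeds flipping of a recombination array, read by NGS. The value is the raw area under the fraction-flipped curve over 0-4 h after rhamnose induction (AUC4h), with ≥20 reads per time point. It is not background-subtracted; inactive controls average about 0.047.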
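Also: Bxb1 expression induced with 0.2% (w/v) L-rhamnose at OD600 near 0.5, cultures sampled hourly, flipped fraction per protease–substrate barcode pair counted by paired-end Illumina sequencing.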

| Variant | area with substrate ENLYFQA | area with substrate ENLYFQC | area with substrate ENLYFQG | area with substrate ENLYFQI | area with substrate ENLYFQK | area with substrate ENLYFQL | area with substrate ENLYFQP | area with substrate ENLYFQR | area with substrate ENLYFQS | area with substrate ENLYFQT | area with substrate ENLYFQY | area with substrate ENLYFQE | area with substrate ENLYFQM | area with substrate ENLYFQW | area with substrate ENLYFQH | area with substrate ENLYFQN | area with substrate ENLYFQV | area with substrate ENLYFQF | area with substrate ENLYFQQ | area with substrate ENLYFQD |
| --- | --- | --- | --- | --- | --- | --- | --- | --- | --- | --- | --- | --- | --- | --- | --- | --- | --- | --- | --- | --- |
| V67T | 0.082 | 0.08 | 0.0612 | 0.0494 | 0.0693 | 0.0481 | 0.0553 | 0.06 | 0.0855 | 0.0705 | 0.0555 | – | – | – | – | – | – | – | – | – |
| T115N | 0.113 | 0.0518 | 0.0913 | 0.0555 | 0.0819 | 0.0458 | – | 0.024 | 0.0898 | 0.0731 | 0.0786 | 0.0632 | 0.0793 | 0.0674 | – | – | – | – | – | – |
| V78S | 0.0751 | 0.075 | 0.0734 | 0.055 | 0.0604 | 0.0593 | 0.0517 | 0.0557 | 0.0742 | 0.0489 | 0.0595 | – | 0.0643 | 0.07 | 0.0568 | 0.0674 | 0.047 | – | – | – |
| V78C | 0.0891 | 0.109 | – | 0.0645 | 0.0644 | 0.0617 | 0.0522 | 0.0926 | 0.0987 | 0.0645 | 0.0739 | 0.0586 | 0.081 | 0.0513 | 0.0707 | 0.0726 | 0.0533 | 0.0729 | – | – |
| K100R | 0.0939 | – | 0.102 | – | – | 0.0507 | – | 0.0657 | 0.11 | 0.062 | 0.105 | 0.066 | 0.0814 | 0.0694 | – | 0.0801 | – | 0.101 | 0.0846 | – |
| K100V | 0.0947 | 0.106 | 0.0816 | 0.057 | – | 0.0454 | 0.0642 | 0.0637 | 0.101 | 0.06 | – | – | 0.0826 | – | 0.0539 | 0.0736 | 0.0633 | – | – | – |
| K100E | 0.104 | – | 0.0887 | 0.0586 | 0.0565 | 0.0614 | 0.0668 | – | 0.107 | 0.0443 | – | – | 0.071 | – | – | 0.0852 | 0.0673 | – | 0.0721 | – |
| K100L | 0.119 | 0.117 | – | – | 0.0651 | 0.0672 | 0.0648 | – | 0.102 | 0.0577 | 0.0605 | – | 0.123 | 0.0633 | – | 0.0713 | – | – | 0.0941 | – |
| D69W | 0.0846 | 0.0822 | – | 0.0497 | 0.0361 | 0.0665 | – | 0.0578 | 0.0803 | 0.0716 | – | – | 0.0652 | 0.0691 | 0.0786 | 0.0707 | 0.0548 | – | – | 0.0609 |
| L56V | 0.062 | 0.0858 | – | 0.0508 | 0.0574 | 0.0558 | 0.0659 | 0.0549 | 0.0802 | – | – | – | 0.0587 | 0.0582 | 0.0765 | 0.0562 | 0.0536 | – | – | – |
| R102T | 0.0545 | 0.0487 | 0.0478 | 0.0488 | 0.0547 | 0.0478 | – | 0.0808 | 0.0594 | 0.0596 | – | 0.0549 | 0.0629 | – | – | 0.088 | 0.0434 | – | – | 0.0639 |
| R102A | 0.0646 | 0.0859 | 0.0626 | 0.0314 | 0.061 | 0.053 | 0.0338 | 0.0465 | 0.0641 | 0.0717 | 0.0557 | – | 0.0637 | – | 0.055 | – | 0.0506 | 0.0635 | 0.0589 | 0.0456 |
| F65W | 0.106 | 0.106 | 0.0784 | 0.0589 | 0.0526 | 0.0722 | 0.055 | 0.0389 | 0.111 | 0.0644 | 0.0732 | 0.0539 | 0.106 | 0.0484 | 0.0798 | – | 0.0666 | – | 0.118 | 0.0526 |
| M83W | 0.0587 | – | 0.0571 | 0.0592 | 0.0586 | 0.0609 | 0.0698 | 0.0717 | 0.0633 | 0.0603 | 0.0655 | – | 0.065 | 0.0742 | 0.0519 | – | 0.0629 | 0.0373 | – | – |
| E103C | 0.123 | 0.13 | 0.102 | 0.0498 | 0.0599 | 0.0671 | 0.0689 | 0.0728 | 0.112 | 0.0673 | – | – | 0.0822 | 0.0692 | 0.0781 | 0.0891 | – | – | – | – |
| E103L | 0.0866 | – | – | 0.0927 | – | 0.0819 | 0.0669 | 0.0839 | 0.102 | 0.0689 | – | 0.0853 | 0.0969 | 0.0726 | – | 0.085 | 0.0601 | – | – | – |
| E103A | 0.107 | 0.123 | 0.0995 | 0.0497 | 0.0679 | 0.0628 | – | 0.0621 | 0.11 | – | 0.0776 | – | – | – | 0.0779 | 0.091 | 0.0603 | – | – | – |
| T114F | 0.109 | 0.119 | 0.0998 | 0.0568 | – | – | – | 0.0493 | 0.101 | 0.0741 | 0.0786 | 0.0874 | 0.0914 | 0.0766 | 0.0774 | 0.0762 | – | – | 0.0726 | 0.0766 |
| G63Q | 0.0932 | 0.112 | 0.0914 | 0.0525 | 0.0623 | 0.0654 | – | 0.0439 | 0.0986 | 0.0554 | 0.0538 | 0.0966 | 0.105 | 0.0658 | 0.0781 | 0.0618 | – | – | – | – |
| P94G | 0.148 | 0.112 | 0.124 | 0.0634 | 0.066 | 0.0623 | 0.0658 | 0.061 | 0.117 | 0.0667 | 0.0868 | – | 0.0922 | 0.0818 | – | 0.0862 | 0.0591 | – | 0.0867 | – |
| P94I | 0.0567 | 0.106 | – | 0.0547 | 0.0616 | 0.06 | – | 0.0593 | 0.0926 | 0.0652 | 0.0602 | – | – | – | 0.0776 | 0.0773 | – | – | 0.0274 | – |
| I84W | 0.0466 | 0.0544 | 0.0613 | 0.0564 | 0.0617 | 0.057 | – | 0.0589 | 0.05 | 0.039 | 0.0417 | – | 0.0571 | – | – | 0.0539 | 0.0486 | – | – | – |
| L73Y | 0.0771 | 0.0748 | 0.0573 | 0.054 | 0.0358 | 0.0466 | 0.0587 | 0.0531 | 0.0708 | – | 0.0554 | – | 0.0594 | – | 0.0632 | 0.0521 | 0.054 | 0.053 | – | 0.0606 |
| L73P | 0.063 | 0.0616 | 0.052 | – | 0.0462 | 0.0577 | – | 0.0435 | 0.0573 | 0.0584 | 0.0549 | 0.0399 | 0.0484 | 0.0636 | 0.0491 | 0.0503 | – | 0.0549 | – | 0.0513 |
